# In the supplement of paper PMC12217912:
# The list shows a part of the results. The full chains were built here from the parent and the listed change. Values near 0.05 are background.
# B1: TEV protease; numbered along this chain (parent)
# chain: MGESLFKGPRDYNPISSSICHLTNESDGHTTSLYGIGFGPFIITNKHLFRRNNGTLVVQSLHGVFKVKDTTTLQQHLVDGRDMIIIRMPKDFPPFPQKLKFREPQREERICLVTTNFQTKSMSSMVSDTSCTFPSGDGIFWKHWIQTKDGQCGSPLVSTRDGFIVGIHSASNFTNTNNYFTSVPKNFMELLTNQEAQQWVSGWRLNADSVLWGGHKVFMVKPEEPFQPVKEATQL
# Variants of: B1
# Test: raw area under fraction-flipped curve 0-4 h after induction (AUC4h, not background-subtracted), DNA-recorder readout of cleavage of the substrate (dimensionless); higher = more cleavage of the substrate by the protease variant
# Settings: temperature: 34 °C; time window: 0-4 h after rhamnose induction
# 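Note: Bxb1 expression induced with 0.2% (w/v) L-rhamnose at OD600 near 0.5, cultures sampled hourly, flipped fraction per protease–substrate barcode pair counted by paired-end Illumina sequencing.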
Variant,area with substrate ECLYFQS,area with substrate EDLYFQS,area with substrate EELYFQS,area with substrate EGLYFQS,area with substrate EHLYFQS,area with substrate EILYFQS,area with substrate EPLYFQS,area with substrate EQLYFQS,area with substrate ERLYFQS,area with substrate ESLYFQS,area with substrate EVLYFQS,area with substrate EWLYFQS,area with substrate EKLYFQS,area with substrate ELLYFQS,area with substrate ETLYFQS,area with substrate EYLYFQS,area with substrate EMLYFQS,area with substrate EFLYFQS
W141G,0.0622,0.0581,0.0777,0.0495,0.0584,0.056,0.0507,0.0441,0.055,0.0513,0.0629,0.0686,–,–,–,–,–,–
Q97S,0.0997,–,–,0.123,0.118,–,–,–,0.0991,0.116,0.101,–,–,–,–,–,–,–
S127H,0.104,0.142,0.123,0.0995,0.12,0.0645,0.113,0.125,0.0851,0.114,0.115,–,0.1,0.0969,0.104,0.15,–,–
M88I,0.101,–,0.129,–,0.0972,–,–,0.127,–,0.126,0.103,0.0703,0.0938,–,0.101,0.0987,0.1,–
T114Q,0.123,0.124,–,–,0.112,–,–,0.134,0.128,0.096,0.138,0.102,0.131,0.101,–,0.111,–,0.154
L156M,0.0831,0.114,0.0929,0.102,–,0.0964,0.105,0.122,0.0912,0.1,0.125,–,–,0.093,–,0.1,0.091,–
R81L,0.088,0.129,–,–,0.0817,0.1,0.16,–,0.119,0.0841,–,–,0.0943,0.0828,–,–,0.0843,–
H76Q,0.106,0.0962,–,–,–,–,0.108,–,0.1,0.0903,–,–,0.138,–,–,0.125,0.102,0.0806
H76A,0.104,–,0.0928,0.0849,0.0935,0.071,–,0.0973,0.0908,0.0765,0.0881,0.0844,–,–,0.116,0.0707,0.104,0.0628
N53T,0.0658,–,0.0882,0.0739,–,–,0.104,–,0.085,0.0843,0.0716,0.081,–,0.0601,0.099,0.0801,0.0939,–
N53I,0.0822,–,–,0.0667,0.0737,–,–,0.0874,0.076,0.0667,0.0631,–,0.0909,0.0718,–,0.0755,0.0726,0.0747
I84C,0.0905,–,0.142,–,–,0.117,0.0947,–,0.098,0.0859,–,0.114,–,–,–,–,0.0906,–
K66V,0.11,0.133,–,–,–,0.0987,0.143,–,–,0.188,0.145,–,0.104,0.12,–,–,–,0.113
S135Y,0.0759,0.0757,0.104,0.0545,0.0528,0.0509,0.0588,0.0731,0.0683,0.0674,0.0515,–,0.0729,–,–,–,0.0573,–
E107N,0.0871,0.152,0.134,–,–,0.105,–,0.111,0.0919,0.113,–,0.114,0.0748,–,0.118,0.108,0.0897,0.107
E107M,0.101,0.0798,0.0938,–,–,0.0772,0.103,0.122,0.0604,0.0923,0.0755,–,0.126,0.0749,0.122,0.0987,0.0688,–
F163L,0.0958,–,0.137,–,0.084,0.0912,0.12,0.111,0.108,–,0.0733,–,0.103,–,–,–,–,–
K98E,0.112,–,0.153,0.0886,0.11,0.105,0.133,0.0965,0.132,0.0878,0.137,0.0972,–,0.0935,–,–,0.119,0.135
S130N,0.076,–,–,0.0994,–,0.0799,0.13,0.115,0.102,0.094,0.0904,–,0.0954,–,–,–,0.131,0.102
E108S,0.122,0.0722,–,–,–,0.0618,–,–,0.0664,0.079,0.062,0.0737,–,0.0606,–,0.0681,–,0.0701
E108V,0.1,0.069,0.0696,0.0616,0.067,0.0592,0.0675,0.0693,0.0577,0.0647,0.0528,–,0.063,0.0581,–,0.0635,0.0621,–
E108I,0.0636,0.0742,0.0919,0.0557,–,0.0708,0.0707,0.0797,0.0593,0.0922,–,–,0.0625,0.0423,–,0.0541,0.0583,–
F95G,0.104,0.0887,0.0689,–,0.0545,0.0627,0.073,0.0659,0.0794,0.0692,0.0565,–,–,–,–,0.0838,0.0771,–
F95V,0.0813,0.0868,0.0829,–,0.0921,0.0753,–,0.0855,–,0.104,0.0757,0.0775,0.0854,0.068,–,–,0.0913,0.0845
H143W,0.0544,0.079,0.064,–,0.0507,0.0527,0.065,–,–,0.0672,0.0528,0.0598,0.0532,0.0577,–,–,0.0527,–
H143K,0.0583,0.0683,0.0712,–,0.0708,–,–,0.0658,0.058,0.0487,0.0715,0.0602,0.0496,0.054,0.0375,–,–,–
H143L,0.0602,0.0644,–,0.0627,–,0.0363,0.0567,0.046,0.0755,0.0668,0.0686,0.0526,–,0.0626,–,0.0644,–,0.086
K120Q,0.0987,–,–,0.076,0.115,0.111,–,–,–,0.0961,0.0636,0.0994,–,0.0656,–,0,0.112,–
G136M,0.0932,0.138,–,–,0.105,0.137,–,0.158,–,0.105,0.114,0.0895,0.169,–,0.116,0.0787,0.105,–
